# This is one part of the list.
# Experiments:
# Assay in all cases: glycan array binding signal (z-score within array); higher = stronger binding
# Details in all cases: glycan notation: IUPAC condensed, linker removed
# [1] = target: Kdn(a2-3)Gal(b1-4)GlcNAc
# Method in brief: (§1)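 Columns mapping to the same glycan were averaged after glycan names were converted to IUPAC-condensed notation. The data come from 3228 arrays in the Consortium for Functional Glycomics database, limited to those with an available protein sequence. Binding is reported as a within-array Z-score averaged across arrays of one protein sequence and across linkers.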
# [2] = target: Kdn(a2-3)Gal(b1-4)[Fuc(a1-3)]GlcNAc
# Method in brief: as §1
# [3] = target: Kdn(a2-6)Gal(b1-4)GlcNAc
# Method in brief: as §1
# [4] = target: Man(a1-2)Man(a1-2)Man(a1-3)Man
# Method in brief: as §1
# [5] = target: Man(a1-2)Man(a1-2)Man(a1-6)[Man(a1-3)]Man
# Method in brief: as §1
# [6] = target: Man(a1-2)Man(a1-3)Man
# Method in brief: as §1
# [7] = target: Man(a1-2)Man(a1-3)[Man(a1-2)Man(a1-6)]Man
# Method in brief: as §1
# [8] = target: Man(a1-2)Man(a1-3)[Man(a1-2)Man(a1-6)]Man(a1-6)[Man(a1-2)Man(a1-2)Man(a1-3)]Man
# Method in brief: as §1
# [9] = target: Man(a1-2)Man(a1-3)[Man(a1-2)Man(a1-6)]Man(a1-6)[Man(a1-2)Man(a1-2)Man(a1-3)]Man(b1-4)GlcNAc(b1-4)GlcNAc
# Method in brief: as §1
# [10] = target: Man(a1-2)Man(a1-3)[Man(a1-6)]Man(a1-6)[Man(a1-2)Man(a1-3)]Man(b1-4)GlcNAc(b1-4)GlcNAc
# Method in brief: as §1
# [11] = target: Man(a1-2)Man(a1-6)[Man(a1-3)]Man(a1-6)[Man(a1-2)Man(a1-2)Man(a1-3)]Man
# Method in brief: as §1
# [12] = target: Man(a1-2)Man(a1-6)[Man(a1-3)]Man(a1-6)[Man(a1-2)Man(a1-2)Man(a1-3)]Man(b1-4)GlcNAc(b1-4)GlcNAc
# Method in brief: as §1
# [13] = target: Man(a1-3)[Man(a1-6)]Man
# Method in brief: as §1
# [14] = target: Man(a1-3)[Man(a1-6)]Man(a1-6)[Man(a1-2)Man(a1-3)]Man(b1-4)GlcNAc(b1-4)GlcNAc
# Method in brief: as §1
# [15] = target: Man(a1-3)[Man(a1-6)]Man(a1-6)[Man(a1-3)]Man
# Method in brief: as §1
# [16] = target: Man(a1-3)[Man(a1-6)]Man(a1-6)[Man(a1-3)]Man(b1-4)GlcNAc(b1-4)GlcNAc
# Method in brief: as §1
# [17] = target: Man(a1-3)[Man(a1-6)]Man(b1-4)GlcNAc(b1-4)GlcNAc
# Method in brief: as §1
# [18] = target: Man(a1-3)[Man(a1-6)]Man(b1-4)GlcNAc(b1-4)[Fuc(a1-6)]GlcNAc
# Method in brief: as §1
# [19] = target: Man(a1-6)Man
# Method in brief: as §1
# [20] = target: Man(b1-4)GlcNAc
# Method in brief: as §1
# [21] = target: MurNAc(b1-4)GlcNAc
# Method in brief: as §1
# [22] = target: Neu5Ac(a2-3)Gal
# Method in brief: as §1
# [23] = target: Neu5Ac(a2-3)Gal(b1-3)GalNAc
# Method in brief: as §1
# [24] = target: Neu5Ac(a2-3)Gal(b1-3)GalNAc(b1-3)Gal(a1-4)Gal(b1-4)Glc
# Method in brief: as §1
# [25] = target: Neu5Ac(a2-3)Gal(b1-3)GalNAc(b1-4)[Neu5Ac(a2-3)]Gal(b1-4)Glc
# Method in brief: as §1
# [26] = target: Neu5Ac(a2-3)Gal(b1-3)GalNAc(b1-4)[Neu5Ac(a2-8)Neu5Ac(a2-3)]Gal(b1-4)Glc
# Method in brief: as §1
# [27] = target: Neu5Ac(a2-3)Gal(b1-3)GalNAc6S
# Method in brief: as §1
# [28] = target: Neu5Ac(a2-3)Gal(b1-3)GlcNAc
# Method in brief: as §1
# [29] = target: Neu5Ac(a2-3)Gal(b1-3)GlcNAc(b1-2)Man
# Method in brief: as §1
# [30] = target: Neu5Ac(a2-3)Gal(b1-3)GlcNAc(b1-2)Man(a1-3)[GlcNAc(b1-4)][Neu5Ac(a2-3)Gal(b1-3)GlcNAc(b1-2)Man(a1-6)]Man(b1-4)GlcNAc(b1-4)GlcNAc
# Method in brief: as §1
# [31] = target: Neu5Ac(a2-3)Gal(b1-3)GlcNAc(b1-2)Man(a1-3)[Neu5Ac(a2-3)Gal(b1-3)GlcNAc(b1-2)Man(a1-6)]Man(b1-4)GlcNAc(b1-4)GlcNAc
# Method in brief: as §1
# [32] = target: Neu5Ac(a2-3)Gal(b1-3)GlcNAc(b1-3)Gal(b1-3)GlcNAc
# Method in brief: as §1
# [33] = target: Neu5Ac(a2-3)Gal(b1-3)GlcNAc(b1-3)Gal(b1-4)GlcNAc
# Method in brief: as §1
# [34] = target: Neu5Ac(a2-3)Gal(b1-3)GlcNAc(b1-3)GalNAc
# Method in brief: as §1
# [35] = target: Neu5Ac(a2-3)Gal(b1-3)GlcNAc(b1-4)Gal(b1-4)Glc
# Method in brief: as §1
# [36] = target: Neu5Ac(a2-3)Gal(b1-3)GlcNAc(b1-6)GalNAc
# Method in brief: as §1
# [37] = target: Neu5Ac(a2-3)Gal(b1-3)GlcNAc6S
# Method in brief: as §1
# [38] = target: Neu5Ac(a2-3)Gal(b1-3)[Fuc(a1-4)]GlcNAc
# Method in brief: as §1
# [39] = target: Neu5Ac(a2-3)Gal(b1-3)[Fuc(a1-4)]GlcNAc(b1-3)Gal(b1-3)[Fuc(a1-4)]GlcNAc
# Method in brief: as §1
# [40] = target: Neu5Ac(a2-3)Gal(b1-3)[Fuc(a1-4)]GlcNAc(b1-3)Gal(b1-4)[Fuc(a1-3)]GlcNAc
# Method in brief: as §1
# [41] = target: Neu5Ac(a2-3)Gal(b1-3)[GlcNAc(b1-6)]GalNAc
# Method in brief: as §1
# [42] = target: Neu5Ac(a2-3)Gal(b1-3)[Neu5Ac(a2-3)Gal(b1-4)]GlcNAc
# Method in brief: as §1
# [43] = target: Neu5Ac(a2-3)Gal(b1-3)[Neu5Ac(a2-6)]GalNAc
# Method in brief: as §1
# [44] = target: Neu5Ac(a2-3)Gal(b1-3)[Neu5Ac(a2-6)]GlcNAc(b1-3)[Fuc(a1-3)[Gal(b1-4)]GlcNAc(b1-6)]Gal(b1-4)Glc
# Method in brief: as §1
# [45] = target: Neu5Ac(a2-3)Gal(b1-3)]Neu5Ac(a2-3)Gal(b1-4)]GlcNAc
# Method in brief: as §1
binder,measurement,setting,value
"Siglec-7-SA-PE-180 (Homo sapiens), Q9Y286 (protein) MLLLLLLPLLWGRERVEGQKSNRKDYSLTMQSSVTVQEGMCVHVRCSFSYPVDSQTDSDPVHGYWFRAGNDISWKAPVATNNPAWAVQEETRDRFHLLGDPQTKNCTLSIRDARMSDAGRYFFRMEKGNIKWNYKYDQLSVNVTALTHRPNILIPGTLESGCFQNLTCSVPWACEQGTPPMISWMGTSVSPLHPSTTRSSVLTLIPQPQHHGTSLTCQVTLPGAGVTTNRTIQLNVSYPPQNLTVTVFQGEGTASTALGNSSSLSVLEGQSLRLVCAVDSNPPARLSWTWRSLTLYPSQPSNPLVLELQVHLGDEGEFTCRAQNSLGSQHVSLNLSLQQEYTGKMRPVSGVLLGAVGGAGATALVFLSFCVIFIVVRSCRKKSARPAADVGDIGMKDANTIRGSASQGNLTESWADDNPRHHGLAAHSSGEEREIQYAPLSFHKGEPQDLSGQEATNNEYSEIKIPK",glycan array binding signal (z-score),[1],-0.083
same,glycan array binding signal (z-score),[2],-0.164
same,glycan array binding signal (z-score),[3],-0.461
same,glycan array binding signal (z-score),[4],-0.434
same,glycan array binding signal (z-score),[5],-0.31
same,glycan array binding signal (z-score),[6],-0.394
same,glycan array binding signal (z-score),[7],-0.408
same,glycan array binding signal (z-score),[8],-0.299
same,glycan array binding signal (z-score),[9],-0.021
same,glycan array binding signal (z-score),[10],-0.186
same,glycan array binding signal (z-score),[11],-0.187
same,glycan array binding signal (z-score),[12],-0.298
same,glycan array binding signal (z-score),[13],-0.286
same,glycan array binding signal (z-score),[14],-0.284
same,glycan array binding signal (z-score),[15],-0.406
same,glycan array binding signal (z-score),[16],-0.43
same,glycan array binding signal (z-score),[17],-0.249
same,glycan array binding signal (z-score),[18],-0.249
same,glycan array binding signal (z-score),[19],-0.087
same,glycan array binding signal (z-score),[20],-0.016
same,glycan array binding signal (z-score),[21],-0.382
same,glycan array binding signal (z-score),[22],2.25
same,glycan array binding signal (z-score),[23],0.25
same,glycan array binding signal (z-score),[24],-0.233
same,glycan array binding signal (z-score),[25],-0.071
same,glycan array binding signal (z-score),[26],-0.182
same,glycan array binding signal (z-score),[27],1.38
same,glycan array binding signal (z-score),[28],0.568
same,glycan array binding signal (z-score),[29],-0.114
same,glycan array binding signal (z-score),[30],-0.111
same,glycan array binding signal (z-score),[31],-0.422
same,glycan array binding signal (z-score),[32],-0.265
same,glycan array binding signal (z-score),[33],0.114
same,glycan array binding signal (z-score),[34],-0.235
same,glycan array binding signal (z-score),[35],-0.223
same,glycan array binding signal (z-score),[36],0.325
same,glycan array binding signal (z-score),[37],0.216
same,glycan array binding signal (z-score),[38],0.387
same,glycan array binding signal (z-score),[39],-0.193
same,glycan array binding signal (z-score),[40],-0.413
same,glycan array binding signal (z-score),[41],-0.676
same,glycan array binding signal (z-score),[42],-0.42
same,glycan array binding signal (z-score),[43],-0.049
same,glycan array binding signal (z-score),[44],-0.096
same,glycan array binding signal (z-score),[45],-0.1

# — the supplement of paper PMC8728848
